Results reported in article PMC10201506 (Signal Transduction and Targeted Therapy, 2023).

Experiments:
SARS-CoV-2 nsp16/10 = SARS-CoV-2 nsp16/10 (Severe acute respiratory syndrome coronavirus 2, UniProt P0DTD1); experiment: SARS-CoV-2 nsp16/10 inhibition; assay type: biochemical; conditions: text: viral life cycle related targets
trypsin = trypsin (Homo sapiens, UniProt P07477); conditions: read-out: IC50 Trypsin/serine

Compound	IC50 (SARS-CoV-2 nsp16/10)	IC50 (trypsin)
O=C(c1cc(=O)[nH]c2ccccc12)N1CCN(c2ccc(Cl)c(Cl)c2)CC1CN1CCOCC1 (centres unmarked) [JZD-07, 4-(4-(3,4-Dichlorophenyl)-2-(morpholinomethyl)piperazine-1-carbonyl)quinolin-2(1H)-one]	> 100 µM	–
CC(C)(C)[C@H](NC(=O)C(F)(F)F)C(=O)N1C[C@H]2[C@@H]([C@H]1C(=O)N[C@H](C#N)C[C@@H]1CCNC1=O)C2(C)C [PF-07321332]	–	> 100 µM
